Assay results: the supplement of paper PMC3334620
Over roughly 33,000 sequences, “E-score (-0.5 to 0.5)” has its median near -0.01; the highest 2% begin near 0.26. The list shows a part of the results.

What follows are sequences tested against Ste12 (UniProt P13574) (assay: PBM E-score (8-mer binding enrichment) (E-score (-0.5 to 0.5)); higher = stronger / more preferred TF binding; most listed sequences are background and not binding sites). Conditions: protein concentration: 200 nM; construct: GST-DNA-binding domain.
How it was run: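 Universal all-10-mer Agilent arrays, fresh or stripped once, were converted to double-stranded form by primer extension. GST-tagged yeast transcription factors from PURExpress in vitro transcription/translation, full-length or DNA-binding domain only, were applied at about 100-200 nM and detected with fluorescent anti-GST. After masliner normalisation, the Universal PBM Analysis Suite scored each ungapped eight-base word together with its reverse complement by E-score.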
For ATCGGTCC, the “PBM E-score” value was -0.0969.
CCAGCATA was tested, and the “PBM E-score” value was 0.0424.
ACACTTCA was tested, and the “PBM E-score” value was -0.0403.
For CTTCAGGA, the “PBM E-score” value was 0.092.
With AGTCAAAA the “PBM E-score” value was 0.207.
For GAAAGTAA, the “PBM E-score” value was 0.14.
With AAGTGACG the “PBM E-score” value was 0.0316.
ACCGCCAG was tested, and the “PBM E-score” value was 0.171.
For CCCATAGA, the “PBM E-score” value was -0.143.
CGCTAAAA was tested, and the “PBM E-score” value was 0.135.
GTGCGCAC was tested, and the “PBM E-score” value was 0.355.
For ACATCGGT, the “PBM E-score” value was -0.116.
AAGAGCAA was tested, and the “PBM E-score” value was 0.0033.
For TAAAGTAA, the “PBM E-score” value was 0.175.
In the case of ACCTCAAG, the “PBM E-score” value is reported as 0.0479.
In the case of CATTGAAC, the “PBM E-score” value is reported as 0.0664.
For AATGACAT, the “PBM E-score” value was 0.0705.
CTTCATGC was tested, and the “PBM E-score” value was -0.224.
With AGCGTCAC the “PBM E-score” value was -0.132.
CTTGACCC was tested, and the “PBM E-score” value was -0.129.
With AGATCAGG the “PBM E-score” value was -0.124.
With GTTCTATA the “PBM E-score” value was 0.0445.
For GAGGTGGA, the “PBM E-score” value was -0.131.
GCCGAGGA was tested, and the “PBM E-score” value was 0.162.
ACCGAAGG was tested, and the “PBM E-score” value was -0.251.
With AGAAGTAT the “PBM E-score” value was 0.156.
With CGCGTAGA the “PBM E-score” value was -0.0217.
With GGAGCAGA the “PBM E-score” value was -0.0933.
AGAAGGTC was tested, and the “PBM E-score” value was -0.0684.
In the case of CATACCTA, the “PBM E-score” value is reported as 0.0133.
ACGTGCCG was tested, and the “PBM E-score” value was -0.00448.
For CAATAGAG, the “PBM E-score” value was -0.0569.
With AGCACGGG the “PBM E-score” value was 0.0104.
For CCCCCGGG, the “PBM E-score” value was -0.0357.
In the case of TCGTGACA, the “PBM E-score” value is reported as 0.141.
CTGGAAAA was tested, and the “PBM E-score” value was 0.0857.
With ACCACAGC the “PBM E-score” value was -0.153.
In the case of CTGCGGAC, the “PBM E-score” value is reported as -0.228.
CTAGTTAA was tested, and the “PBM E-score” value was -0.0553.
In the case of AACTCGGC, the “PBM E-score” value is reported as 0.111.
With GGGTCCAC the “PBM E-score” value was -0.322.
With ACTGCAGA the “PBM E-score” value was -0.0913.
AGATAGGC was tested, and the “PBM E-score” value was 0.0647.
For CCTCGTCG, the “PBM E-score” value was 0.0143.
CAGGGGTC was tested, and the “PBM E-score” value was -0.119.
In the case of TGGAGCCA, the “PBM E-score” value is reported as -0.186.
In the case of AAGACTGG, the “PBM E-score” value is reported as -0.13.
For CGACAGAG, the “PBM E-score” value was 0.00598.
With CGAGTCCG the “PBM E-score” value was 0.0966.
In the case of TACTAAGA, the “PBM E-score” value is reported as 0.0543.
In the case of GTGGAACA, the “PBM E-score” value is reported as 0.144.
In the case of CTGCCGGC, the “PBM E-score” value is reported as -0.0671.
In the case of AGAAATTA, the “PBM E-score” value is reported as 0.123.
AGAGGAGA was tested, and the “PBM E-score” value was -0.212.
For CAACGAAC, the “PBM E-score” value was 0.0512.
AACTACTT was tested, and the “PBM E-score” value was -0.00699.
In the case of CAAGCGGG, the “PBM E-score” value is reported as -0.166.
In the case of GGGGTCAC, the “PBM E-score” value is reported as -0.101.
CACAGGTA was tested, and the “PBM E-score” value was 0.0125.
In the case of CTACCTAC, the “PBM E-score” value is reported as -0.143.
TAGATTGA was tested, and the “PBM E-score” value was 0.0662.
CCATATCG was tested, and the “PBM E-score” value was 0.0636.
For ACTAAGCC, the “PBM E-score” value was -0.102.
With ACCCTTCA the “PBM E-score” value was -0.0288.
For CCTTATAG, the “PBM E-score” value was 0.0705.
In the case of ATGCCGGA, the “PBM E-score” value is reported as -0.0366.
With GGCCGGTA the “PBM E-score” value was 0.0473.
For TAAGGGTA, the “PBM E-score” value was -0.164.
In the case of CAATAACC, the “PBM E-score” value is reported as 0.116.
With TCTCCCCA the “PBM E-score” value was 0.00114.
For TACCCACA, the “PBM E-score” value was -0.104.
For GAAACAGA, the “PBM E-score” value was 0.287.
For ATGCCGAG, the “PBM E-score” value was 0.0547.
CCGGCTCA was tested, and the “PBM E-score” value was 0.062.
With CAGGCCGC the “PBM E-score” value was -0.24.
With GTAAATTA the “PBM E-score” value was 0.18.
ACCTTCAG was tested, and the “PBM E-score” value was -0.148.
For TGGTTACA, the “PBM E-score” value was 0.128.
For ATACCTTC, the “PBM E-score” value was 0.0612.
For ACCAGAAG, the “PBM E-score” value was -0.0252.
With ACAGACTA the “PBM E-score” value was 0.041.
In the case of ATGGACTA, the “PBM E-score” value is reported as -0.145.
In the case of CGTATGAA, the “PBM E-score” value is reported as 0.213.
CTTCTTTA was tested, and the “PBM E-score” value was 0.105.
CACACGAA was tested, and the “PBM E-score” value was 0.0582.
In the case of AAACCCGC, the “PBM E-score” value is reported as 0.256.
For ATTCCAAT, the “PBM E-score” value was 0.108.
For AAGGCGCG, the “PBM E-score” value was -0.023.
With ATGCAATC the “PBM E-score” value was 0.044.
For CACCTTGG, the “PBM E-score” value was -0.0715.
GCAGGCTA was tested, and the “PBM E-score” value was -0.187.
With ACGTGGGC the “PBM E-score” value was -0.245.
CTGCCGGA was tested, and the “PBM E-score” value was 0.107.
In the case of AAATTGGT, the “PBM E-score” value is reported as 0.231.
With ATTTCCGG the “PBM E-score” value was 0.208.
With ATCTTCAG the “PBM E-score” value was 0.0575.
For GTGTGGCA, the “PBM E-score” value was -0.159.
With CTCGATTC the “PBM E-score” value was -0.113.
For GCAAGTAA, the “PBM E-score” value was 0.0527.
With AACCGAAT the “PBM E-score” value was 0.15.
For ATCTGTCA, the “PBM E-score” value was 0.0283.
With AAATATCC the “PBM E-score” value was 0.0562.
With ACGCCGAC the “PBM E-score” value was -0.0253.
In the case of TCGGTTAA, the “PBM E-score” value is reported as 0.198.
CGGGTGGA was tested, and the “PBM E-score” value was -0.066.
In the case of CTGCGAGC, the “PBM E-score” value is reported as 0.0456.
In the case of ACTGAGAC, the “PBM E-score” value is reported as -0.0186.
With ATGGCTTC the “PBM E-score” value was -0.0931.
In the case of ATTACGCC, the “PBM E-score” value is reported as -0.0562.
For ACCATCTC, the “PBM E-score” value was 0.0579.
For CCCTCACA, the “PBM E-score” value was -0.0551.
For AGAGGACC, the “PBM E-score” value was -0.211.
For CTTTTGGA, the “PBM E-score” value was 0.134.
With CCGATACC the “PBM E-score” value was -0.231.
In the case of TCCAGAGA, the “PBM E-score” value is reported as -0.211.
TCAATAAA was tested, and the “PBM E-score” value was 0.0901.
For AGTGCGAT, the “PBM E-score” value was 0.139.
For TCTGCCCA, the “PBM E-score” value was -0.173.
For GGTTTTGA, the “PBM E-score” value was 0.111.
For GGTTCAGA, the “PBM E-score” value was -0.0174.
In the case of ACCACCGA, the “PBM E-score” value is reported as -0.0704.
CGACAAAA was tested, and the “PBM E-score” value was 0.114.
CTGGACAA was tested, and the “PBM E-score” value was -0.177.
In the case of CAACCCAG, the “PBM E-score” value is reported as -0.0384.
In the case of CCTCCTGC, the “PBM E-score” value is reported as -0.0477.
For AACCTTGG, the “PBM E-score” value was -0.0674.
With CGCATTAA the “PBM E-score” value was 0.144.
For TCTCTAAA, the “PBM E-score” value was 0.0533.
GCACGCCA was tested, and the “PBM E-score” value was -0.201.
For ATTGTTCG, the “PBM E-score” value was 0.0992.
In the case of CAACCGAG, the “PBM E-score” value is reported as -0.0341.
GCTCGAAA was tested, and the “PBM E-score” value was 0.0428.
GCGGCGCC was tested, and the “PBM E-score” value was 0.151.
With ATCTCCTG the “PBM E-score” value was 0.0702.
In the case of GACCTCAA, the “PBM E-score” value is reported as 0.0245.
In the case of CAGCGAAG, the “PBM E-score” value is reported as -0.0903.
CCCACCGC was tested, and the “PBM E-score” value was 0.0836.
For TATTCGCA, the “PBM E-score” value was 0.117.
In the case of CGAACAAA, the “PBM E-score” value is reported as 0.242.
In the case of CTTTTCGA, the “PBM E-score” value is reported as 0.242.
For GTATCGAA, the “PBM E-score” value was 0.149.
CTTCACGA was tested, and the “PBM E-score” value was -0.252.
AGTATCGC was tested, and the “PBM E-score” value was -0.0098.
AAAGAACT was tested, and the “PBM E-score” value was 0.0118.
GCATGGTA was tested, and the “PBM E-score” value was -0.00394.
CCATATGA was tested, and the “PBM E-score” value was 0.0986.
For ATAGAGGC, the “PBM E-score” value was -0.161.
For ATTCAGGA, the “PBM E-score” value was 0.0603.
GTGGCCAC was tested, and the “PBM E-score” value was -0.095.
In the case of AGCGTTGA, the “PBM E-score” value is reported as -0.0266.
For GACGGTGC, the “PBM E-score” value was -0.153.
For GAGGCAAA, the “PBM E-score” value was 0.103.
CGATGATC was tested, and the “PBM E-score” value was -0.179.
In the case of ATGTCACG, the “PBM E-score” value is reported as 0.144.
AGGGAGGC was tested, and the “PBM E-score” value was -0.122.
With ACTCGCGG the “PBM E-score” value was 0.0459.
For AAGACGAG, the “PBM E-score” value was -0.11.
AGTCGATG was tested, and the “PBM E-score” value was 0.0443.
With AAGCCAGT the “PBM E-score” value was -0.0914.
With ACTACACT the “PBM E-score” value was -0.0466.
ACGATAAC was tested, and the “PBM E-score” value was 0.0678.
With ATCGCTCG the “PBM E-score” value was -0.0129.
For ACTGGAAC, the “PBM E-score” value was -0.0203.
With TTTATAAA the “PBM E-score” value was 0.271.
AATCCCTG was tested, and the “PBM E-score” value was -0.0793.
With ATGAGGTG the “PBM E-score” value was -0.144.
TGGACACA was tested, and the “PBM E-score” value was -0.15.
GCAGGGTA was tested, and the “PBM E-score” value was -0.0837.
GCAGAGAC was tested, and the “PBM E-score” value was -0.275.
For GAGTACGC, the “PBM E-score” value was -0.241.
For TTGAGCAA, the “PBM E-score” value was -0.0301.
With CAGACCAC the “PBM E-score” value was -0.0292.
